Measurements: the supplement of paper PMC10441789
This is one part of the list. Antibody binding of pooled human sera (four to six donors per pool; dilution not stated) to peptides of the Trypanosoma cruzi antigen TSSA on microarrays. Quantile-normalised fluorescence in arbitrary units, mean of duplicate arrays; higher = more binding. No active / inactive call. The uninfected pools are read here as the healthy donors of the same country. The strongest signals lie near the top of the scale (about 60,000).

Columns and labels:
Assay in all cases: antibody binding signal (normalised fluorescence) (arbitrary fluorescence units); higher = stronger serum antibody binding to peptide
[1] = test system: pooled sera of chronic Chagas disease patients, Argentina
Procedure: (§1)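 Microarray of 15-residue peptides over residues 30-55 of Trypanosoma cruzi TSSAII, each with 1 to 10 substitutions at naturally variable positions, probed with one serum pool per country.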

[2] = test system: pooled sera of chronic Chagas disease patients, Bolivia
Procedure: as §1

[3] = test system: pooled sera of chronic Chagas disease patients, Brazil
Procedure: as §1

[4] = test system: pooled sera of chronic Chagas disease patients, Colombia
Procedure: as §1

[5] = test system: pooled sera of chronic Chagas disease patients, Mexico
Procedure: as §1

[6] = test system: pooled sera of chronic Chagas disease patients, USA
Procedure: as §1

[7] = test system: pooled sera of uninfected people, Argentina
Procedure: as §1

[8] = test system: pooled sera of uninfected people, Bolivia
Procedure: as §1

[9] = test system: pooled sera of uninfected people, Brazil
Procedure: as §1

[10] = test system: pooled sera of uninfected people, Colombia
Procedure: as §1

[11] = test system: pooled sera of uninfected people, Mexico
Procedure: as §1

[12] = test system: pooled sera of uninfected people, USA
Procedure: as §1

Sequence KEKKTATGEAPSPPG has an antibody binding signal [1] of 5870, an antibody binding signal [2] of 4220 and an antibody binding signal [3] of 5260. It also gave an antibody binding signal [4] of 258, an antibody binding signal [5] of 239 and an antibody binding signal [6] of 13400. For the same sequence, the antibody binding signal [7] was 165, the antibody binding signal [8] was 76.3 and the antibody binding signal [9] was 114. The antibody binding signal [10] was 82, the antibody binding signal [11] was 80.5 and the antibody binding signal [12] was 106.

For SGKDNKAATGGAPSP, the antibody binding signal [1] was 1050, the antibody binding signal [2] was 348 and the antibody binding signal [3] was 720. For the same sequence, the antibody binding signal [4] was 1830, the antibody binding signal [5] was 1250 and the antibody binding signal [6] was 1920. It also gave an antibody binding signal [7] of 276, an antibody binding signal [8] of 212 and an antibody binding signal [9] of 112. For the same sequence, the antibody binding signal [10] was 286, the antibody binding signal [11] was 103 and the antibody binding signal [12] was 114.

KENKAAAGGAPSPPG gave an antibody binding signal [1] of 172, an antibody binding signal [2] of 207 and an antibody binding signal [3] of 600. For the same sequence, the antibody binding signal [4] was 1320, the antibody binding signal [5] was 169 and the antibody binding signal [6] was 667. For the same sequence, the antibody binding signal [7] was 225, the antibody binding signal [8] was 104 and the antibody binding signal [9] was 113. It also gave an antibody binding signal [10] of 117, an antibody binding signal [11] of 80.1 and an antibody binding signal [12] of 132.

For TPPSGKDNKAAAGEA, the antibody binding signal [1] was 3840, the antibody binding signal [2] was 2300 and the antibody binding signal [3] was 2110. The antibody binding signal [4] was 307, the antibody binding signal [5] was 30100 and the antibody binding signal [6] was 3330. It also gave an antibody binding signal [7] of 403, an antibody binding signal [8] of 764 and an antibody binding signal [9] of 227. It also gave an antibody binding signal [10] of 303, an antibody binding signal [11] of 229 and an antibody binding signal [12] of 135.

KENKTAAGGTPSPPG was tested, and the antibody binding signal [1] was 406, the antibody binding signal [2] was 202 and the antibody binding signal [3] was 176. It also gave an antibody binding signal [4] of 2530, an antibody binding signal [5] of 201 and an antibody binding signal [6] of 1270. The antibody binding signal [7] was 186, the antibody binding signal [8] was 104 and the antibody binding signal [9] was 247. It also gave an antibody binding signal [10] of 128, an antibody binding signal [11] of 179 and an antibody binding signal [12] of 123.

For TDKKAATGEAPSPSG, the antibody binding signal [1] was 19500, the antibody binding signal [2] was 30600 and the antibody binding signal [3] was 23200. It also gave an antibody binding signal [4] of 218, an antibody binding signal [5] of 350 and an antibody binding signal [6] of 23000. For the same sequence, the antibody binding signal [7] was 477, the antibody binding signal [8] was 105 and the antibody binding signal [9] was 229. It also gave an antibody binding signal [10] of 598, an antibody binding signal [11] of 155 and an antibody binding signal [12] of 212.

For STPPSGKDKKTATGG, the antibody binding signal [1] was 9840, the antibody binding signal [2] was 690 and the antibody binding signal [3] was 2440. It also gave an antibody binding signal [4] of 1960, an antibody binding signal [5] of 35000 and an antibody binding signal [6] of 1640. For the same sequence, the antibody binding signal [7] was 219, the antibody binding signal [8] was 277 and the antibody binding signal [9] was 102. The antibody binding signal [10] was 170, the antibody binding signal [11] was 97.3 and the antibody binding signal [12] was 123.

With GTEKKTAAGGAPSQS the antibody binding signal [1] was 707, the antibody binding signal [2] was 1270 and the antibody binding signal [3] was 277. The antibody binding signal [4] was 7040, the antibody binding signal [5] was 1540 and the antibody binding signal [6] was 1820. It also gave an antibody binding signal [7] of 201, an antibody binding signal [8] of 567 and an antibody binding signal [9] of 260. For the same sequence, the antibody binding signal [10] was 203, the antibody binding signal [11] was 359 and the antibody binding signal [12] was 129.

Sequence KDKKPAAGEAPSQPG has an antibody binding signal [1] of 2510, an antibody binding signal [2] of 8910 and an antibody binding signal [3] of 33400. For the same sequence, the antibody binding signal [4] was 153, the antibody binding signal [5] was 172 and the antibody binding signal [6] was 11500. The antibody binding signal [7] was 102, the antibody binding signal [8] was 223 and the antibody binding signal [9] was 97.8. The antibody binding signal [10] was 86.7, the antibody binding signal [11] was 69.1 and the antibody binding signal [12] was 95.9.

PSGTDKKAATGEAPS gave an antibody binding signal [1] of 21700, an antibody binding signal [2] of 22300 and an antibody binding signal [3] of 26300. For the same sequence, the antibody binding signal [4] was 3190, the antibody binding signal [5] was 1190 and the antibody binding signal [6] was 25800. It also gave an antibody binding signal [7] of 418, an antibody binding signal [8] of 594 and an antibody binding signal [9] of 255. It also gave an antibody binding signal [10] of 564, an antibody binding signal [11] of 1350 and an antibody binding signal [12] of 295.

Work on SGTENKPATGGTPSP yielded an antibody binding signal [1] of 43400, an antibody binding signal [2] of 21300 and an antibody binding signal [3] of 37200. For the same sequence, the antibody binding signal [4] was 485, the antibody binding signal [5] was 1490 and the antibody binding signal [6] was 8480. The antibody binding signal [7] was 867, the antibody binding signal [8] was 1830 and the antibody binding signal [9] was 509. It also gave an antibody binding signal [10] of 416, an antibody binding signal [11] of 382 and an antibody binding signal [12] of 183.

GKDNKAATGGAPSQP was tested, and the antibody binding signal [1] was 872, the antibody binding signal [2] was 1210 and the antibody binding signal [3] was 11200. It also gave an antibody binding signal [4] of 1600, an antibody binding signal [5] of 1970 and an antibody binding signal [6] of 1840. The antibody binding signal [7] was 226, the antibody binding signal [8] was 257 and the antibody binding signal [9] was 89.2. For the same sequence, the antibody binding signal [10] was 144, the antibody binding signal [11] was 71.3 and the antibody binding signal [12] was 83.9.

For PPSGTENKTATGETP, the antibody binding signal [1] was 49100, the antibody binding signal [2] was 41000 and the antibody binding signal [3] was 46600. For the same sequence, the antibody binding signal [4] was 285, the antibody binding signal [5] was 4140 and the antibody binding signal [6] was 13700. The antibody binding signal [7] was 1540, the antibody binding signal [8] was 360 and the antibody binding signal [9] was 280. It also gave an antibody binding signal [10] of 286, an antibody binding signal [11] of 228 and an antibody binding signal [12] of 465.

In the case of GKDNKPAAGEAPSQP, the antibody binding signal [1] is reported as 7020, the antibody binding signal [2] is reported as 19900 and the antibody binding signal [3] is reported as 42900. It also gave an antibody binding signal [4] of 1240, an antibody binding signal [5] of 1810 and an antibody binding signal [6] of 16600. It also gave an antibody binding signal [7] of 286, an antibody binding signal [8] of 894 and an antibody binding signal [9] of 152. For the same sequence, the antibody binding signal [10] was 227, the antibody binding signal [11] was 391 and the antibody binding signal [12] was 102.

With NKAAAGGAPSPSGAS the antibody binding signal [1] was 413, the antibody binding signal [2] was 261 and the antibody binding signal [3] was 3210. The antibody binding signal [4] was 4560, the antibody binding signal [5] was 619 and the antibody binding signal [6] was 980. It also gave an antibody binding signal [7] of 886, an antibody binding signal [8] of 929 and an antibody binding signal [9] of 302. It also gave an antibody binding signal [10] of 369, an antibody binding signal [11] of 196 and an antibody binding signal [12] of 1110.

In the case of SGKENKPAAGETPSP, the antibody binding signal [1] is reported as 2940, the antibody binding signal [2] is reported as 4140 and the antibody binding signal [3] is reported as 19700. It also gave an antibody binding signal [4] of 3800, an antibody binding signal [5] of 4200 and an antibody binding signal [6] of 14200. It also gave an antibody binding signal [7] of 8030, an antibody binding signal [8] of 4870 and an antibody binding signal [9] of 170. It also gave an antibody binding signal [10] of 334, an antibody binding signal [11] of 670 and an antibody binding signal [12] of 418.

Sequence KEKKPAAGGAPSQSG has an antibody binding signal [1] of 206, an antibody binding signal [2] of 175 and an antibody binding signal [3] of 156. It also gave an antibody binding signal [4] of 1400, an antibody binding signal [5] of 196 and an antibody binding signal [6] of 151. It also gave an antibody binding signal [7] of 117, an antibody binding signal [8] of 82.4 and an antibody binding signal [9] of 136. It also gave an antibody binding signal [10] of 94.5, an antibody binding signal [11] of 76.9 and an antibody binding signal [12] of 280.

With TDKKAATGETPSPPG the antibody binding signal [1] was 1100, the antibody binding signal [2] was 3130 and the antibody binding signal [3] was 14300. The antibody binding signal [4] was 212, the antibody binding signal [5] was 249 and the antibody binding signal [6] was 10400. For the same sequence, the antibody binding signal [7] was 723, the antibody binding signal [8] was 209 and the antibody binding signal [9] was 254. It also gave an antibody binding signal [10] of 673, an antibody binding signal [11] of 198 and an antibody binding signal [12] of 1800.

GTDNKPAAGGTPSPS gave an antibody binding signal [1] of 2150, an antibody binding signal [2] of 362 and an antibody binding signal [3] of 40200. It also gave an antibody binding signal [4] of 2350, an antibody binding signal [5] of 391 and an antibody binding signal [6] of 389. It also gave an antibody binding signal [7] of 173, an antibody binding signal [8] of 1080 and an antibody binding signal [9] of 1560. It also gave an antibody binding signal [10] of 732, an antibody binding signal [11] of 559 and an antibody binding signal [12] of 127.

KKPATGGAPSQPGAS gave an antibody binding signal [1] of 487, an antibody binding signal [2] of 564 and an antibody binding signal [3] of 9040. It also gave an antibody binding signal [4] of 448, an antibody binding signal [5] of 399 and an antibody binding signal [6] of 514. The antibody binding signal [7] was 349, the antibody binding signal [8] was 670 and the antibody binding signal [9] was 106. For the same sequence, the antibody binding signal [10] was 121, the antibody binding signal [11] was 91.4 and the antibody binding signal [12] was 337.
